Laboratory results: the supplement of paper PMC9990464
Counter-ions that a name gives are not always drawn. This is one part of the list. Many values rest on one well or one pass, so single values are uncertain.

Tests used:
Experiment in all cases: area under viability curve (10 nM-1 µM), viability relative to solvent or trametinib-only control (AUC (arbitrary, % viability x concentration range)); higher = less growth inhibition (more viable cells)
KCNR = conditions: 72 h compound exposure (96 h after seeding) h
Experimental: (§1)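 Four neuroblastoma cell lines (KCNR, SKNBE, SJNB8, SKNAS) were seeded in 384-well plates. At 24 h, 1 µM trametinib or DMSO was added, followed by library compounds at 10 nM, 100 nM and 1 µM. Viability was read by MTT at 96 h and normalised to solvent-treated cells (DMSO arm) or to trametinib-only cells (trametinib arm). The area under the 3-point viability curve was computed in GraphPad Prism; units are as given (approx. 100000 = no effect).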

SJNB8 = conditions: 72 h compound exposure (96 h after seeding) h; trametinib co-treatment 0 µM
Experimental: as §1

SKNAS = conditions: 72 h compound exposure (96 h after seeding) h
Experimental: as §1

SKNBE = conditions: 72 h compound exposure (96 h after seeding) h
Experimental: as §1
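Note: KCNR is a neuroblastoma cell line carrying an ALK mutation, in this DMSO arm without trametinib, viability was normalised to solvent-treated cells.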

| Compound | area under viability curve (KCNR; trametinib co-treatment 0 µM) | area under viability curve (KCNR; trametinib co-treatment 1 µM) | area under viability curve (SJNB8) | area under viability curve (SKNAS; trametinib co-treatment 0 µM) | area under viability curve (SKNAS; trametinib co-treatment 1 µM) | area under viability curve (SKNBE; trametinib co-treatment 0 µM) | area under viability curve (SKNBE; trametinib co-treatment 1 µM) |
| --- | --- | --- | --- | --- | --- | --- | --- |
| CC(C)[C@H](O)C(=O)N[C@@H](C)C(=O)N[C@@H]1C(=O)N(C)CCc2ccccc21 [Semagacestat] | 104000 | 104000 | 100000 | 87600 | 98700 | 109000 | 96000 |
| Nc1nc(Cl)nc2c1ncn2[C@@H]1O[C@H](CO)[C@@H](O)[C@@H]1F [Clofarabine] | 90700 | 94100 | 59700 | 58900 | 68900 | 108000 | 113000 |
| C[C@H]1O[C@@H](n2cc(F)c(=O)[nH]c2=O)[C@H](O)[C@@H]1O [Doxifluridine] | 106000 | 96000 | 108000 | 61600 | 104000 | 111000 | 99000 |
| Cc1ccc(C(=O)c2cc(/C=C/C(=O)NO)n(C)c2)cc1 | 99800 | 96800 | 74000 | 89200 | 95300 | 98700 | 96900 |
| COc1cccc2c1C(=O)c1c(O)c3c(c(O)c1C2=O)C[C@@](O)(C(C)=O)C[C@@H]3O[C@H]1C[C@H](N)[C@H](O)[C@H](C)O1 [Daunorubicin HCl] | 8410 | 3040 | 72000 | 46200 | 41500 | 46700 | 16000 |
| O=C(CCCCCCC(=O)Nc1ccccc1)NO [Vorinostat] | 62200 | 49100 | 76500 | 69100 | 68200 | 77200 | 63700 |
| O=C1c2c(O)ccc(O)c2C(=O)c2c(NCCNCCO)ccc(NCCNCCO)c21 [Mitoxanthrone HCl] | 6120 | 2400 | 58600 | 53800 | 41800 | 48500 | 16100 |
| CCCS(=O)(=O)Nc1ccc(F)c(C(=O)c2c[nH]c3ncc(-c4ccc(Cl)cc4)cc23)c1F [Vemurafenib] | 108000 | 104000 | 67900 | 102000 | 102000 | 84600 | 104000 |
| CO[C@@]12[C@H](COC(N)=O)C3=C(C(=O)C(C)=C(N)C3=O)N1C[C@@H]1N[C@@H]12 [Mitomycin C] | 43700 | 26000 | 64500 | 89400 | 76500 | 61300 | 42100 |
| CCNC(=O)[C@@H]1CCCN1C(=O)[C@H](CCCNC(=N)N)NC(=O)[C@H](CC(C)C)NC(=O)[C@@H](COC(C)(C)C)NC(=O)[C@H](Cc1ccc(O)cc1)NC(=O)[C@H](CO)NC(=O)[C@H](Cc1c[nH]c2ccccc12)NC(=O)[C@H](Cc1cnc[nH]1)NC(=O)[C@@H]1CCC(=O)N1 [Buserelin acetate] | 105000 | 99100 | 92400 | 112000 | 91300 | 109000 | 104000 |
| CCOc1cc2ncc(C#N)c(Nc3ccc(F)c(Cl)c3)c2cc1NC(=O)/C=C/CN(C)C [Pelitinib] | 88000 | 84300 | 84700 | 84400 | 93400 | 90300 | 79100 |
| COc1cccc2c1C(=O)c1c(O)c3c(c(O)c1C2=O)C[C@@](O)(C(=O)CO)C[C@@H]3O[C@H]1C[C@H](N)[C@H](O[C@@H]2CCCCO2)[C@H](C)O1 [Pirarubicin] | 31500 | 9890 | 61500 | 51300 | 61700 | 49200 | 30900 |
| CC(C)C[C@H](NC(=O)[C@@H](Cc1cccc2ccccc12)NC(=O)[C@H](Cc1ccc(O)cc1)NC(=O)[C@H](CO)NC(=O)[C@H](Cc1c[nH]c2ccccc12)NC(=O)[C@H](Cc1cnc[nH]1)NC(=O)[C@@H]1CCC(=O)N1)C(=O)N[C@@H](CCCNC(=N)N)C(=O)N1CCC[C@H]1C(=O)NCC(N)=O [Nafarelin acetate] | 101000 | 95000 | 78600 | 56800 | 97300 | 100000 | 99500 |
| O=c1ncccn1[C@@H]1O[C@H](CO)[C@@H](O)[C@H]1O [Zebularine] | 103000 | 99900 | 95400 | 95700 | 100000 | 112000 | 104000 |
| Cc1cn(-c2cc(NC(=O)c3ccc(C)c(Nc4nccc(-c5cccnc5)n4)c3)cc(C(F)(F)F)c2)cn1 [Nilotinib HCl] | 107000 | 97700 | 90400 | 104000 | 96100 | 104000 | 90400 |
| N.N.O=C([O-])C[O-].[Pt+2] [Nedaplatin] | 101000 | 102000 | 94800 | 122000 | 99500 | 95500 | 102000 |
| COc1cc2c(N3CCN(C(=O)Nc4ccc(OC(C)C)cc4)CC3)ncnc2cc1OCCCN1CCCCC1 [Tandutinib] | 95500 | 102000 | 96600 | 123000 | 99900 | 101000 | 99300 |
| O=C(CCCCCN1C(=O)c2cccc3cccc(c23)C1=O)NO [Scriptaid] | 57700 | 43600 | 78600 | 53300 | 63400 | 88700 | 63000 |
| COc1ncc(-c2ccc3nccc(-c4ccnnc4)c3c2)cc1NS(=O)(=O)c1ccc(F)cc1F [Omipalisib] | 30700 | 21200 | 51100 | 56500 | 40600 | 18700 | 4330 |

| Compound | area under viability curve (KCNR; trametinib co-treatment 0 µM) | area under viability curve (KCNR; trametinib co-treatment 1 µM) | area under viability curve (SJNB8) | area under viability curve (SKNAS; trametinib co-treatment 0 µM) | area under viability curve (SKNAS; trametinib co-treatment 1 µM) | area under viability curve (SKNBE; trametinib co-treatment 0 µM) | area under viability curve (SKNBE; trametinib co-treatment 1 µM) |
| --- | --- | --- | --- | --- | --- | --- | --- |
| O=C1CCc2c(ccc3ccccc23)O1 [Splitomicin] | 103000 | 99600 | 92600 | 120000 | 95500 | 107000 | 97600 |
| COc1cc(N2CCC(N3CCN(C)CC3)CC2)ccc1Nc1ncc(Cl)c(Nc2ccccc2S(=O)(=O)C(C)C)n1 | 17400 | 23600 | 64300 | 56800 | 59200 | 47100 | 49700 |
| O=c1[nH]c(=O)n(C2CCCO2)cc1F (stereo unspecified) [Tegafur] | 104000 | 105000 | 86600 | 92600 | 98600 | 108000 | 110000 |
| Nc1nc(F)nc2c1ncn2[C@@H]1O[C@H](CO)[C@@H](O)[C@@H]1O [Fludarabine] | 104000 | 98600 | 110000 | 109000 | 99800 | 102000 | 101000 |
| Cc1ccc(Nc2nccc(N(C)c3ccc4c(C)n(C)nc4c3)n2)cc1S(N)(=O)=O [Pazopanib] | 105000 | 102000 | 110000 | 123000 | 106000 | 115000 | 93200 |
| COCC[n+]1c2c(n(Cc3cnccn3)c1C)C(=O)c1ccccc1C2=O [Sepantronium bromide] | 4460 | 2510 | 62900 | 10400 | 4840 | 71300 | 10300 |
| CN1CCN(CCOc2cc(OC3CCOCC3)c3c(Nc4c(Cl)ccc5c4OCO5)ncnc3c2)CC1 [Saracatinib] | 91800 | 96900 | 57300 | 84400 | 83400 | 79900 | 87500 |
| CC[C@@]1(O)C(=O)OCc2c1cc1n(c2=O)Cc2cc3c(CN(C)C)c(O)ccc3nc2-1 [Topotecan HCl] | 10700 | 9320 | 60400 | 40500 | 61400 | 36300 | 16700 |
| O=Nc1ccc(O)c2ncccc12 | 101000 | 99700 | 96100 | 103000 | 98500 | 102000 | 101000 |
| CN(C)CCOc1ccc(/C(=C(/CCCl)c2ccccc2)c2ccccc2)cc1 [Toremifene citrate] | 98200 | 97500 | 61000 | 60200 | 98200 | 72500 | 91200 |
| CC(=O)Nc1cccc(-n2c(=O)n(C3CC3)c(=O)c3c(Nc4ccc(I)cc4F)n(C)c(=O)c(C)c32)c1 [Trametinib (DMSO solvate)] | 76700 | 107000 | 21600 | 45800 | 106000 | 68500 | 113000 |
| Oc1ccc(/C=C/c2cc(O)cc(O)c2)cc1 [Resveratrol] | 104000 | 99100 | 86200 | 129000 | 96400 | 117000 | 109000 |
| CCc1c2c(nc3ccc(O)cc13)-c1cc3c(c(=O)n1C2)COC(=O)[C@]3(O)CC [7-Ethyl-10-hydroxycamptothecin] | 3190 | 2880 | 56200 | 22500 | 30800 | 22600 | 9240 |
| COc1cc2c(cc1OC)CN(CCc1ccc(NC(=O)c3cc(OC)c(OC)cc3NC(=O)c3cnc4ccccc4c3)cc1)CC2 [Tariquidar] | 104000 | 102000 | 81700 | 83300 | 101000 | 107000 | 113000 |
| CNNCc1ccc(C(=O)NC(C)C)cc1 [Procarbazine HCl] | 107000 | 94300 | 79600 | 77100 | 101000 | 98900 | 95800 |
| COc1ccc(-c2ccc3c(N4CCOC[C@@H]4C)nc(N4CCOC[C@@H]4C)nc3n2)cc1CO | 50800 | 50700 | 46100 | 39800 | 45000 | 42100 | 22600 |
| CN(C)C(=O)c1cc2cnc(Nc3ccc(N4CCNCC4)cn3)nc2n1C1CCCC1 [Ribociclib] | 76000 | 79100 | 65600 | 92400 | 97100 | 69100 | 56600 |
| CC[C@]1(O)C[C@@H]2CN(CCc3c([nH]c4ccccc34)[C@@](C(=O)OC)(c3cc4c(cc3OC)N(C)[C@H]3[C@@](O)(C(N)=O)[C@H](O)[C@]5(CC)C=CCN6CC[C@]43[C@@H]65)C2)C1 [Vindesine sulfate] | 12800 | 12600 | 44300 | 21600 | 18800 | 38000 | 4410 |
| N[C@@]1(C(=O)O)CS(=O)(=O)[C@H]2[C@H](C(=O)O)[C@H]21 | 103000 | 101000 | 112000 | 114000 | 108000 | 118000 | 103000 |
